Results on one molecule are retold here after paper PMC12345631.

These are yes or no findings as the source states them, for the method shown. In cells and extracts the contact can be indirect. Some entries that bind do so weakly or less than the wild type. Sequences can lack the tags named with a protein.

In this test the target is T1, Pbp1-Flag (S. cerevisiae) (UniProt P53297).
T1 sequence: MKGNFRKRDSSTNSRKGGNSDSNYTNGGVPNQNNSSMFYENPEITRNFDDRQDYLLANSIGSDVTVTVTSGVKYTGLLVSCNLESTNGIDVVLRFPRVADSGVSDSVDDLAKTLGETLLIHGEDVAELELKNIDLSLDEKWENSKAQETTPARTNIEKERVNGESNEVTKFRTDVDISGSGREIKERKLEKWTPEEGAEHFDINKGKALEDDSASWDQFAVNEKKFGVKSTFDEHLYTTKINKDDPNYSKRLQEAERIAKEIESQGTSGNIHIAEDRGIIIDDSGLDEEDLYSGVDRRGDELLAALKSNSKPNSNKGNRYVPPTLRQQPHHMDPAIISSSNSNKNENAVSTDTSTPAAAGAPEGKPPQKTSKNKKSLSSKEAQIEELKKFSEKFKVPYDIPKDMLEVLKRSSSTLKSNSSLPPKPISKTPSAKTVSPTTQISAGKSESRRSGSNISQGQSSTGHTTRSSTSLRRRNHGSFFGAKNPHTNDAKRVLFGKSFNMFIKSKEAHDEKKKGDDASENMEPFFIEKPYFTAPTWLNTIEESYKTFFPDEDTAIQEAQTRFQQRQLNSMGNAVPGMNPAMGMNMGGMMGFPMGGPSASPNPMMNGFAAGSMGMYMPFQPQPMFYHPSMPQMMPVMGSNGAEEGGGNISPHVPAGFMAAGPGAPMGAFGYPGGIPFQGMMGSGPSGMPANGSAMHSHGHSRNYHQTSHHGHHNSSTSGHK
In words: co-IP; anti-Flag co-IP as above; washed IP samples incubated with RNase If for 15 min at 37°C; cells from YPL cultures in log phase.

B1: Mkt1-HA (protein, UniProt P40850 1-830)
chain: MAIKSLESFLFERGLVGSYAIEALNNCTLGIDVNHYVSRLLTNKREQYLDAIGGFPTSLKMYLESDLKIFKDFNITPIFVFNGGLTYNQLEASGHFTAASASASISSTTTSSSGTNATTRSNTESVLLQRSRGWTQWNNLISSNQNSYIDQPIQPQEPFRHNTTIDSKAYQNDLIAYFIEHGYMYQVAPYSSWFQLAYLLNSAYIDAIYGPTDCLMLDCVDRFILGMEFPNKEFRFIDRSRVMKDLGCTHEEFIDIAMAVGNDLQPTTLPPLQIYPVPQLFDIALEMVLNTGTNFYAYQLSTTLQNDSKENIQNYQRGISALRYMPVLKDTGKVELFVQEIVVSEEDSEKNNKDGKKSNLSSPSSASSSASPATTVTKNASEKLTYEKSSTKEVRKPRDIPNDVHDFIGQMLPHEYYFYRSIGLVTGKLFDAIVTGVYPEEPPLGGGSSTSYRKLVSKSVEIFKNKEINLLTQPINRYYQIKQIKQVKWYAANEPTTLTNRMSPSMFETINHLIVKTETSDEKEFSISEFITTINGSSNMAKDFISEKVIFPNSVPIESKLNSPFNLLSTNFLRLLVLLEFFTFDFKEKLLEPTRWGEVFLKLNELNIDSKYHESVIIFLVFLKCDVLKLDEEVQPPAPSALSQATLRSYPEESLYVLLITRVLTLFQVDQKPSNYHGPIDKKTLIFRDHLSFIKENLNELFEAVLISSLTSGEFNRLSLDNFGWARKIVRYLPFKLDSPNTIMAMMWEFFLQKYLHNGNAKNDALSLVATEFNTYKSTPNLDEQFVESHRFLLEISKVMQELNAAKLIDENVFKLFTKAVEFTTTALSS
For B1, the binding entry was “binds”.
